Results reported in the supplement of paper PMC11417369.
± gives the standard deviation of the averaged measurements. Some of the results follow.

tested on: PfAP2-EXP AP2 domain (GST-tagged); assay: gcPBM binding intensity (ln(normalized median fluorescence intensity)); higher = stronger DNA binding
In short: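 Probes on an Agilent 4 × 180k array were primer-extended, double-stranded and 36 bp long, taken from intergenic genomic regions, with negative controls added. GST-tagged P. falciparum DNA-binding domains from E. coli, about 25 μg on average, were applied to the array for 1 h in 1× PBS containing 1% milk, 0.2 mg/ml BSA, 0.5% salmon testes DNA and 0.03% Triton X-100. Binding intensity, obtained after Alexa488 anti-GST antibody detection and a 488 nm scan, is the highest Masliner-normalised natural-log median intensity across replicate spots of either probe orientation.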

| Sequence | gcPBM binding intensity (ln) |
| --- | --- |
| AAAAAAAAAAAAAAATGTACAAAAATTACTATAAAA [XGTACX_site7683] | 8.29 ± 0.36 |
| TTTTTTTTTGTTTACACACACAAAATATTATATGTA [CACACA_site2470] | 8.46 ± 0.42 |
| TATTAATAAAACCGTTGTACTACATACATAAATATT [XGTACX_site5578] | 8.49 ± 0.35 |
| CATTATATGATTTATGTGCACATTCATTTATTTTAA | 8.83 ± 0.099 |
| AAAAATCAATTAGAAGAACACACGTAAATTTTTTTT [CACACA_site2396] | 8.57 ± 0.47 |
| ATACTATATATATAAGTGCATGTTCATTATACCTAA | 8.75 ± 0.31 |
| ATAACTAAATGATATTGTACAAAATAATTATATATT [XGTACX_site1331] | 8.53 ± 0.33 |
| ATATATATTATGTGTGTGCACTTTTGTTATTATTAT | 9 ± 0.33 |
| TAAATGGGTGTTAATGCACACGATATGTCTATATAT [CACACA_site5321] | 8.61 ± 0.34 |
| TATTTATTTTTCTGTTGTACTTTTCAACATGTTACA [XGTACX_site7457] | 8.87 ± 0.47 |
| TCTACATATTAATTATGTACGAATTATTATTAGTAA [XGTACX_site6924] | 8.12 ± 0.28 |
| TATTTATGTTCATATAAACACACGTAAAATTCAAGG [CACACA_site1538] | 8.62 ± 0.39 |
| TCAATAAAAAAAAACGCACACACAAATATATTCCAT [CACACA_site1223] | 8.7 ± 0.56 |
| CATATTCATAAAAGTTGTACATGCAATTTTTTTTTT [XGTACX_site2261] | 8.74 ± 0.38 |
| GTCCCTATAAGGGGAACACACATAAATGGATATATA [CACACA_site6612] | 8.51 ± 0.53 |
| AAATACAAAATTGTTACACACATATTAAGTATGACA [CACACA_site4421] | 8.28 ± 0.44 |
| AACGTTCAATTTAAATGTACAAATGTATTTAAATAT [XGTACX_site315] | 8.42 ± 0.35 |
| AGTTTAGAATTTAATACACACAAAAAAAAAAAATTA [CACACA_site7698] | 8.39 ± 0.39 |
| TTTCTTTTTTCATTTACACACAATAATATAAGAATA [CACACA_site3164] | 8.58 ± 0.37 |
| TACACAAATATATATATATATATATATATATATATA [XGTACX_negctrl_site305] | 10.2 ± 0.14 |
| TATTACACATATTATACACACATATATTATATATAT [CACACA_site4951] | 8.69 ± 0.25 |
| TAACATATTTTTAATACACACTTAAAAAAGTACTTA [CACACA_site4875] | 8.31 ± 0.34 |
| TTAAATTGAATTAGTTAACACACAACTTTTATTTCA [CACACA_site8921] | 8.17 ± 0.38 |

| Sequence | gcPBM binding intensity (ln) |
| --- | --- |
| TCTTCATACGACTAAAAAACATTAGACTGATAAAAA [CACACA_negctrl_site628] | 8.38 ± 0.35 |
| TTGTGTTTTACATATACATGCAAATTTTTTTTTTTA [TGCATGCA_site303] | 8.52 ± 0.17 |
| TAAATCATTTCATGGCATTTACACAAAATTTTTTAA [CACACA_negctrl_site1260] | 8.38 ± 0.44 |
| TATTTATTTATATAAACACACATAAATATAAATATA [CACACA_site6653] | 8.3 ± 0.47 |
| TATATATAATATTATACACACATATATGCATAATAT [CACACA_site54] | 8.77 ± 0.38 |
| TATAGCATAAATATGTGTACATATTTATATGATATT [XGTACX_site6333] | 8.37 ± 0.28 |
| ATATATATTTAAAAAAGTACAGAAGAAAATAACCCA [XGTACX_site642] | 9.03 ± 0.52 |
| TGAAACCATAAAGAATGTACACAGCGGTATAAGTTA [XGTACX_site674] | 8.8 ± 0.44 |
| AATAAAATAAGAAGCACACAAATATTATATATAAAA [CACACA_site3980] | 8.78 ± 0.42 |
| TTTTAAATAATACATACATGCATATATACACATATA [TGCATGCA_site8] | 8.56 ± 0.39 |
| TTAATATATTTAAATATATATAAAATATATAATATG [CACACA_negctrl_site880] | 8.12 ± 0.3 |
| TTCTTTTCTTCTACATGTACAAATATTATATATATA [XGTACX_site2996] | 9.29 ± 0.46 |
| TTTTGGAATTTTAGCTGTACTTTTCCTATTTTGTAT [XGTACX_site7679] | 8.73 ± 0.43 |
| ATTATTATTAATAGTACACACTATGGCATTTCAATA [CACACA_site5388] | 8.58 ± 0.28 |
| TATTTCACAACTTGTCGTACATTAATTGTATTATTT [XGTACX_site997] | 8.8 ± 0.38 |
| TATATAACTGTCTTCACACACACATATAAATAAATA [CACACA_site7317] | 8.54 ± 0.43 |
| ATCTTTCATCTACCAAGTACAAATTACTTTTTTTTT [XGTACX_site7001] | 8.81 ± 0.38 |
| TTAGGTGTATATAATTGTACATTTTGGAAATTATAC [XGTACX_site5492] | 8.43 ± 0.27 |
| TCTTATTTAAAAATAGCACACATTATGTATATATAT [CACACA_site2822] | 8.64 ± 0.13 |
| AGCTCGGAAAAATTAGCATGCAAAAAAAAAAAAAAA [TGCATGCA_site658] | 8.54 ± 0.23 |
| TGCTTATATATACGTGCACACATATATATAAGATAT [CACACA_site8516] | 9.03 ± 0.33 |
| TATTTTAATTATAAATTTAAAAAAAAAAAGAAAAAA [CACACA_negctrl_site1674] | 8.21 ± 0.51 |
| CTGGAGGATGAAAAAAGTACAAAAGGAGGAAATGTA [XGTACX_site8846] | 8.86 ± 0.63 |

| Sequence | gcPBM binding intensity (ln) |
| --- | --- |
| AAAACAAATATATTAACACACAAACATATAAACAAA [CACACA_site6052] | 8.77 ± 0.53 |
| AGCTCATGCAGGTGTACACAAAAAGAAAAAAAATAA [CACACA_site4828] | 8.99 ± 0.37 |
| ATGTCCTCAATGTTTACACACTCTTTTATATAAGTT [CACACA_site1460] | 9.05 ± 0.31 |
| CCCCATATAATGAACACACACACTCCTCATAATTAA [CACACA_site628] | 8.96 ± 0.3 |
| ATAAATAATGTTGACACACACAATAATCTTATTATG [CACACA_site3593] | 8.4 ± 0.44 |
| TATTAATTTATATCAACACACAAAATCAATATACTT [CACACA_site1757] | 8.36 ± 0.39 |
| CGAAATATTATGTACGCACACACATTTTTAATATAT [CACACA_site3852] | 8.63 ± 0.23 |
| AAGGAATAATATAAAACACACACATAAATATAAATA [CACACA_site9115] | 8.68 ± 0.26 |
| ATATAGATCAGACACACACACATGTTTTAAAACTAT [CACACA_site6186] | 8.86 ± 0.56 |
| AACATAAATATATATAGTACATATATATATATTCAA [XGTACX_site7287] | 8.31 ± 0.25 |
| TTCTATATTTTAGCTGATAATATTATGAGCTTCACT [XGTACX_negctrl_site427] | 8.57 ± 0.32 |
| TCTTTAATGAACAAATGTACAAGAACAATACCCGCA [XGTACX_site2047] | 8.97 ± 0.47 |
| CTTTAACCTTTTTATTGTACTTTTAATATTTTAAAA [XGTACX_site4457] | 8.73 ± 0.38 |
| AATATATGGTATAATTGTACAAAAAAAAAAAAAAAA [XGTACX_site1476] | 8.35 ± 0.56 |
| GTGAAATGGAAAAAAAGTACAGATTACATAAGTATT [XGTACX_site6355] | 8.64 ± 0.42 |
| TTTTTTATTTTAATGTATTATTTTTATGTAATATAT [GTGCAC_negctrl_site391] | 8.29 ± 0.33 |
| GATATGATTACCTTATGGTGTTTTTGATGGATAGTT [CACACA_negctrl_site1504] | 8.62 ± 0.5 |
| TTTTATTATTTATATACACACTTGCTGAAATGTTAT [CACACA_site5919] | 8.59 ± 0.47 |
| TATAATAATAATGATAGTACGTATGAGTTCAAAAAA [XGTACX_site608] | 8.55 ± 0.42 |
| TATATACAAATATGCTGTACAAAAAAAAAAAAAAAA [XGTACX_site4732] | 8.22 ± 0.42 |
| CGGTATTTTTTAATTTGTACGCATATACAATAATTA [XGTACX_site8603] | 8.61 ± 0.45 |
| AATTGTTCGATATATGCACACAGTTTTGTTATTTTT [CACACA_site1615] | 8.74 ± 0.3 |
| TATTTATATTTATATACACACTATATAACTCAAACA [CACACA_site6611] | 8.36 ± 0.39 |

| Sequence | gcPBM binding intensity (ln) |
| --- | --- |
| CTAGCAAATACATACACACACACACGGATACCTATA [CACACA_site7609] | 8.76 ± 0.58 |
| TATATAACTTTATTTTTCTTTACTTATTTTATTTTA [GTGCAC_negctrl_site66] | 8.47 ± 0.42 |
| ATATATATATATATATGTACATATTATTAATAATAT [XGTACX_site6667] | 10.2 ± 0.35 |
| AAAGAAAAAAAAAAAAGTACATAAATATAAAAAGAA [XGTACX_site6753] | 8.88 ± 0.43 |
| TTTTTTAAAATATATATAATGAATTTTTTTTTTTTT [CACACA_negctrl_site1577] | 7.8 ± 0.51 |
| GTATAATATGAACACACACACACACCCAAAAAAAAA [CACACA_site5152] | 8.79 ± 0.42 |
| TTATGGAACCCCATTCGTACATAAATATTTTATATA [XGTACX_site7112] | 8.4 ± 0.35 |
| ATACATATTAACAAGGTGCAAATGGATTTCATAAAA [GTGCAC_site9775] | 8.995 ± 0.035 |
| TTTTTTTTTTTGTGAGTGCACGTATGAAGAGAAAAA | 9.63 ± 0.3 |
| ATGTCTATATATTAAGGTACACATATATGCTATTCA [XGTACX_site6008] | 8.47 ± 0.39 |
| AAAATATACATAAACACACACAAAACGTTTAAGAAA [CACACA_site1071] | 8.84 ± 0.66 |
| ATATTAATTTTTATTACACACTCTCAATTTTTATTT [CACACA_site58] | 8.73 ± 0.38 |
| GTTTAACTGTTTTATACACACAATGTATCCAATAAA [CACACA_site5612] | 8.88 ± 0.43 |
| TTTTAGTTAATTCATGCATGTAAAGTTTTATTTATA [TGCATGCA_site252] | 9.01 ± 0.2 |
| AAAAAAAAAAAAAAAGTACACACTTTTGCGTACATG [CACACA_site3097] | 8.44 ± 0.13 |
| TTTATGCACGCGTGCACACACATATGAAAAAAGGTA [CACACA_site3315] | 9.48 ± 0.13 |
| TATGTTTAAATATATTGTACGCACGTATGTTTTTAA [XGTACX_site1108] | 8.52 ± 0.24 |
| TATATATTAAAAATAGTGCAAAATAATATATATATA [GTGCAC_site9716] | 9.845 ± 0.049 |
| AATACCTTTTAATAATGTACAAACAAAAATTAGAGA [XGTACX_site6850] | 8.71 ± 0.45 |
| ATATATATATATATATGTACATATTCATCTTATTCT [XGTACX_site1537] | 10 ± 0.42 |
